Structures are written as SMILES. Values joined by “and” are separate entries in the source; they are usually repeats but may differ in a detail not shown here. Equal entries are not always repeated. In all, about 48,000 compounds went through this assay and about 1,200 (2.5%) were called active. Inconclusive results (about 2%) are left out.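 How the source made its calls: active means activation of at least 60% and not above a set upper limit (about 1 call in 100 departs from these limits); inconclusive means activation of 40% to 60%, or above that upper limit; inactive means activation under 40%.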 Some of the results follow.

UniProt O75388, sequence (O75388 whole entry, looked up): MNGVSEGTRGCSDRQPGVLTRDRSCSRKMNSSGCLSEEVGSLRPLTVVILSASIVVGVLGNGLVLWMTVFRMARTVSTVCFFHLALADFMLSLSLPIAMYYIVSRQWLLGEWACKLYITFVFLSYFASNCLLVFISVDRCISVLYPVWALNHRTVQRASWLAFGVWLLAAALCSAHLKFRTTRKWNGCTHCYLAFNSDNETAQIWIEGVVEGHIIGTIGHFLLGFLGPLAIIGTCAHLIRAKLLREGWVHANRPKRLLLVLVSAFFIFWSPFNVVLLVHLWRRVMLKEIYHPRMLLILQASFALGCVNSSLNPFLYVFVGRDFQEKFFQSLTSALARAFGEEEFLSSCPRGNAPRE

The target in the experiment is Probable G-protein coupled receptor 32 (Homo sapiens) (UniProt O75388). The experiment in a line: qHTS for Agonists of Human Resolvin D1 Receptor DRV1. Further: 0% is about no effect. The settings on record: CHO-K1 GPR32 beta-arrestin PathHunter luminescence, 90 min; at 76.9 µM; active compounds read high; zero percent set by DMSO-only wells. In short, it runs like this:
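Luminescent readout of beta-Gal complementation quantifies ligand-induced beta-arrestin association with GPR32 in CHO-K1 cells; 90 min compound incubation at 37 °C, detection 1 h at room temperature.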
Regarding `Cc1cc2nc3c(=O)n(C)c(=O)n(C)c3nc2cc1N=CN(C)C`, the activation is inactive: 14.4%. Then `CCOC(=O)CC(NC(=O)Cn1nnc(-c2ccccc2C)n1)c1ccc(OC)cc1` (centres undefined), with inactive: 7.8%; and `COc1ccc(-c2nc(SCC(=O)NCCCc3ccccc3)n[nH]2)cc1`, with inactive: 9.8%; and `COc1ccc(NC(=O)CCc2c(C)nn(-c3ccc(N4CCOCC4)nn3)c2C)cc1Cl`, with inactive: -12.2%. In the case of `Cc1ccc2occ(CC(=O)Nc3ccc(S(N)(=O)=O)cc3)c2c1`, the activation was inactive: 26%. In the case of `CCN(CC)CCCNC(=O)c1oc2c(c1C)-c1nn(Cc3ccc(Cl)cc3)cc1CC2` it was inactive: -11.3%; in that of `Cc1cccc(-c2noc(C3CC(=O)N(c4ccc5c(c4)OCCO5)C3)n2)c1` (centres undefined), inactive: -5.92%. In the case of `Cc1ccc(N(CC(=O)NC(C)c2ccccc2)S(=O)(=O)c2c(C)noc2C)cc1` (centres undefined) it was inactive: 12.8%; in that of `COc1ccc(NC(=O)Cn2c(C)c3cnn(-c4ccccc4)c(=O)c3c2C)c(OC)c1`, inactive: -0.997%; in that of `Cc1cc(OCC(=O)Nc2sc3c(c2C(N)=O)CCCC3)ccc1C(C)C`, inactive: 22.5%. With `CCc1ccc(C(=O)c2cn(CC(=O)Nc3ccc(F)cc3)c3cc4c(cc3c2=O)OCO4)cc1`, the activation was inactive: 13.2%. In the case of `CCOc1ccc(C2c3c(-c4ccccc4O)n[nH]c3C(=O)N2Cc2ccncc2)cc1` (centres undefined) it was inactive: -7.06%.

Regarding `CCCc1nnc(NC(=O)c2nc(S(=O)(=O)Cc3ccc(C)cc3)ncc2Cl)s1`, the activation is inactive: 15.3%. In the case of `O=C(c1ccc2c(Cl)c3c(nc2c1)CCCC3)N1CCN(c2ccccc2)CC1` it was inactive: -1.46%; in that of `CCOC(=O)c1cc(-c2ccccc2)n(CCCC(=O)Nc2ccc(CC)cc2)c1C`, inactive: -14.7%. In the case of `CC(C)(C)C1CCc2onc(C(=O)Nc3sc4c(c3C(N)=O)CCCC4)c2C1` (centres undefined) it was inactive: -25.5%; in that of `Cc1c(Cl)cccc1NC(=O)CCS(=O)(=O)c1ccc(Br)s1`, inactive: 23.3%.

As to `NC(=O)c1cc(S(=O)(=O)NCC2CCC(C(=O)Nc3cccc(Cl)c3)CC2)cs1` (centres undefined), the activation is inactive: 7.48%. In the case of `Cc1c2cnn(-c3ccccc3)c(=O)c2c(C)n1CCCC(=O)Nc1ccc(F)cc1F` it was inactive: 2.49%.

`Cc1ccc(NC(=O)CSc2nc3ccccc3c3nc(CCn4c(C)nc5ccccc54)nn23)cc1F`: the activation was inactive: -10.9%. Then `CCOc1ccccc1NS(=O)(=O)c1c(-c2ccc(C)cc2)csc1C(=O)OC`, with inactive: -13.8%. For the compound `CCOC(=O)c1cc(-c2ccccc2)n(CC(=O)NCc2ccccc2OC)c1C`, the activation was inactive: 5.85%. On to `COCCNC(=O)c1ccc2c(c1)N(Cc1cccc(Cl)c1)C(=O)c1ccccc1S2=O` (centres undefined), for which the activation is inactive: -4.62%. In the case of `Cc1ccc(C)c(NC(=O)CCNS(=O)(=O)c2ccc3c(c2)CCCC(=O)N3)c1` it was inactive: 12.4%; in that of `CN(C(=O)CSc1nnc2[nH]c(=O)cc(-c3ccccc3)n12)c1ccccc1`, inactive: -4.44%.

Take `Cn1c(=O)n(C)c2cc(S(=O)(=O)Nc3ccccc3C(=O)O)ccc21`: the activation was inactive: 7.75%. Then `Fc1ccc(CNc2ncnc3c2c(-c2ccccc2)cn3-c2ccccc2)cc1`, with inactive: -8.91%. For `Cc1ccc(C)c(N2CCN(C(=O)CN3C(=O)CSc4c3c(C)nn4-c3ccccc3)CC2)c1`, the activation is inactive: -18.9%. In the case of `O=C(Nc1ccc(F)c(F)c1)C1CCCN(S(=O)(=O)c2cccc3nonc23)C1` (centres undefined) it was inactive: 2.81%. Turning to `Cc1ccc(S(=O)(=O)c2[nH]c(-c3ccccc3)nc2SCC(=O)O)cc1`, the activation was inactive: -3.96%. Then `COc1ccc(N2CCN(CC(O)COc3ccc(C(C)(C)C)cc3)CC2)cc1` (centres undefined), with inactive: 10.3%; and `Cc1ccc2c(CNCCc3ccc(Cl)cc3)c(C(=O)O)n(Cc3ccc(F)cc3)c2c1`, with inactive: 37%; and `CCOC(=O)c1ccc(NC(=O)CC2C(=O)N(c3ccccc3)C(=O)N2Cc2cccs2)cc1` (centres undefined), with inactive: 30.8%. Consider `CCOc1ccc(CNC(=O)c2ccc3nc(Cc4ccc(OC)cc4)oc3c2)cc1OC`, for which the activation was inactive: 7.98%. In the case of `O=c1c2sc3ccccc3c2n(Cc2ccccc2)c(=O)n1Cc1ccccc1`, the activation was inactive: -3%.

As to `CCc1ccc(CN(C(=O)c2nc(SC)ncc2Cl)C2CCS(=O)(=O)C2)cc1` (centres undefined), the activation is inactive: -15.7%. In the case of `CCC(=O)N1c2ccccc2CC1C(=O)N1CCN(c2ccccc2)CC1` (centres undefined) it was inactive: 2.56%; in that of `Cc1ccc(Cl)cc1NC(=O)c1ccc(-c2nc(CSc3ccccc3)c(C)o2)cc1`, inactive: -1.57%; in that of `CCN(C(=O)Cc1c(C(=O)O)[nH]c2ccccc12)c1ccc(OC)cc1`, inactive: 9.41%. In the case of `CC(C)Cc1nn2c(=O)cc(COC(=O)c3ccc(NC(=O)c4cccs4)cc3)nc2s1` it was inactive: -10.1%; in that of `CCOc1ccccc1NC(=O)Cn1c(=O)ccc2cc(S(=O)(=O)N3CCC(C)CC3)ccc21`, inactive: -15.5%. In the case of `CCOC(=O)c1ccc(NC(=O)CCc2c(C)nc3c(c(C)nn3C)c2C)cc1` it was inactive: 35.7%; in that of `O=S(=O)(NCCc1csc(-c2ccc(F)cc2)n1)c1ccc(Cl)cc1`, active: 63.6%; in that of `O=c1c2c3c(sc2nnn1Cc1ccc(Br)cc1)CCCC3`, inactive: -8.57%. As for `Cc1ccc(OCCCn2c(C3CC(=O)N(c4cccc(Cl)c4)C3)nc3ccccc32)c(C)c1` (centres undefined), the activation is inactive: 6.99%. Then `CCOC(=O)C1CCN(C(=O)C2COc3ccccc3C2)CC1` (centres undefined), with inactive: -7.27%; and `O=C(c1cc2ccccc2oc1=O)N(Cc1cccc(Cl)c1)C1CCS(=O)(=O)C1` (centres undefined), with inactive: -12.6%. In the case of `Cc1ccc(CN2CCSc3ccc(C(=O)N4CCN(c5cccc(C)c5C)CC4)cc32)cc1` it was inactive: -13%. For the compound `O=C(CSc1nccn1Cc1ccc(Cl)cc1)NC1CCCC1`, the activation is inactive: -0.725%.

For the compound `COc1ccc(-c2cnc(C)o2)cc1S(=O)(=O)Nc1ccc(C)c(F)c1`, the activation was inactive: -32.9%. In the case of `CCOc1ccc(NC(=O)CSc2ncc3c(n2)-c2ccccc2N(C)S3(=O)=O)cc1` it was inactive: 20.1%.

Take `Cc1ccc(NC(=O)N2CCC(n3c(C)nc4cccnc43)CC2)c(Cl)c1`: the activation is inactive: 1.36%. Turning to `Clc1ccccc1-c1nc(Nc2ccccc2)nc2ccc(Br)cc12`, the activation is inactive: -11%. In the case of `COCCNC(=O)CCC(=O)NNc1nc2ccccc2c2nc(-c3ccccc3)nn12` it was inactive: -2.89%; in that of `Cc1ccc(NC(=O)c2cc(S(=O)(=O)N3CCOCC3)c(Cl)cc2Cl)cc1`, active: 84%. With `CCCCC(CC)COC(=O)C(C#N)=C(c1ccccc1)c1ccccc1` (centres undefined), the activation is inactive: -3.41%. In the case of `COc1ccc(CNC(=O)Nc2cn(CC(C)C)c(=O)c3ccccc23)c(OC)c1` it was inactive: -8.66%. Then `Nc1c2c(nc3ccccc13)CCCC2`, with inactive: 2.12% and inactive: 11.2%. Then `CCc1ccc(CNC(=O)c2ccc(CSc3nc4ccncc4n3Cc3ccccc3)cc2)cc1`, with inactive: -15.7%; and `CCC(Oc1ccccc1)C(=O)Nc1nnc(S(=O)(=O)Nc2ccccc2)s1` (centres undefined), with inactive: 13.6%.

Consider `COC(=O)CCc1sc(Nc2ccc(OC)cc2)nc1-c1ccc(OC)cc1`, for which the activation is inactive: -31.4%. On to `Cc1ccccc1NC(=O)CC1C(=O)NCCN1C(=O)c1cccc(Cl)c1` (centres undefined), for which the activation was inactive: 11.4%. Then `CC(=O)c1ccc(N2CCN(C(=O)NCc3noc4ccc(C)cc34)CC2)cc1`, with inactive: -4.77%; and `Cc1noc(-c2ccccc2OCC(=O)Nc2cccc([N+](=O)[O-])c2)n1`, with inactive: -3.24%; and `Cc1ccc(S(=O)(=O)NCc2nc3nc(C)cc(C)n3n2)c(C)c1`, with inactive: -12%. In the case of `Cc1ccc(C)c(N(C)C(=O)C2CCN(S(=O)(=O)c3cccc4nsnc34)CC2)c1` it was inactive: 1.13%. Then `COc1ccc(-c2nnn3c2nc(N2CCCC(C)C2)c2ccccc23)cc1` (centres undefined), with inactive: 2.69%; and `CC(=O)c1cc(C(=O)Nc2cccc(C)c2)c2ccccn12`, with inactive: -4.57%; and `COc1ccc(N2CCN(C(=O)CCS(=O)(=O)c3cc4c(cc3Cl)NC(=O)CO4)CC2)cc1`, with inactive: 4.57%. Regarding `CCN1c2ccccc2-c2nc(SCC(=O)Nc3ccc(C)c(Cl)c3)ncc2S1(=O)=O`, the activation was inactive: -15.4%. In the case of `CCOC(=O)c1ccccc1NC(=O)CSc1nc2ncccc2[nH]1`, the activation was inactive: -0.681%.

In the case of `CCOC(=O)c1c(C)c(-c2ccccc2)n(CC(=O)Nc2cc(OC)cc(OC)c2)c1C`, the activation was inactive: -8.03%. Then `COc1cc(C2NC(=O)NC(C)=C2C(=O)Nc2cc(C)cc(C)c2)ccc1O` (centres undefined), with inactive: -1.79%. In the case of `CCOC(=O)c1noc2ncnc(N3CCN(c4ccccc4OC)CC3)c12` it was inactive: -14.7%; in that of `COC(=O)CNC(=O)Nc1cc(C(=O)NCc2ccc(C)cc2)ccc1N1CCCC1`, inactive: -9.45%; in that of `CC(C)(C)NS(=O)(=O)c1ccc2nc(NC(=O)c3cccnc3)sc2c1`, inactive: 39.2%. Then `O=C(Nc1ccc(F)cc1F)c1ccc(CN2CC(=O)N3CCCCC3C2=O)cc1` (centres undefined), with inactive: 0.798%. Turning to `CC(=O)N1c2ccccc2CC1C(=O)N1CCN(c2ccc(F)cc2)CC1` (centres undefined), the activation was inactive: -1.87%. In the case of `COc1ccc(C)cc1NC(=O)c1oc2ccc(S(=O)(=O)N(C)C3CCCCC3)cc2c1C` it was inactive: -13%. In the case of `COC(=O)C1CCN(S(=O)(=O)c2cc3c4c(c2)C(C)C(=O)N4CCC3)CC1` (centres undefined), the activation was inactive: 4.25%. In the case of `Cc1ccc(Cn2c(SCC(=O)NCc3ccc(Cl)cc3)nc3ccsc3c2=O)cc1` it was inactive: -4.1%; in that of `CC(C)(C)c1cc(C(C)(C)C)c2oc(=O)c(-c3nc4ccccc4[nH]3)cc2c1`, inactive: -2.81%; in that of `O=C(CSc1nc2ccccc2c2nc(-c3ccccc3)nn12)Nc1ccc(Br)cc1`, inactive: 13%.

As to `CCS(=O)(=O)N1CC(=O)N(c2ccccc2C)C(C)(C(=O)NC2CCCCC2)C1` (centres undefined), the activation was inactive: 1.79%.
